Results on ten variants are retold here after the supplement of paper PMC12217912.

B1: TEV protease; numbered along this chain (parent)
chain: MGESLFKGPRDYNPISSSICHLTNESDGHTTSLYGIGFGPFIITNKHLFRRNNGTLVVQSLHGVFKVKDTTTLQQHLVDGRDMIIIRMPKDFPPFPQKLKFREPQREERICLVTTNFQTKSMSSMVSDTSCTFPSGDGIFWKHWIQTKDGQCGSPLVSTRDGFIVGIHSASNFTNTNNYFTSVPKNFMELLTNQEAQQWVSGWRLNADSVLWGGHKVFMVKPEEPFQPVKEATQL

In this test the parent is B1. The experiment in a line: raw area under fraction-flipped curve 0-4 h after induction (AUC4h, not background-subtracted), DNA-recorder readout of cleavage of the substrate (dimensionless); higher = more cleavage of the substrate by the protease variant. To be noted: temperature: 34 °C; time window: 0-4 h after rhamnose induction.

The list shows a part of the results. The full chains were built here from the parent and the listed change. Values near 0.05 are background.
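Further: Bxb1 expression induced with 0.2% (w/v) L-rhamnose at OD600 near 0.5, cultures sampled hourly, flipped fraction per protease–substrate barcode pair counted by paired-end Illumina sequencing.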

Take MGESLFKGPRDYNPISSSICHLTNESDGHVTSLYGIGFGPFIITNKHLFRRNNGTLVVQSLHGVFKVKDTTTLQQHLVDGRDMIIIRMPKDFPPFPQKLKFREPQREERICLVTTNFQTKSMSSMVSDTSCTFPSGDGIFWKHWIQTKDGQCGSPLVSTRDGFIVGIHSASNFTNTNNYFTSVPKNFMELLTNQEAQQWVSGWRLNADSVLWGGHKVFMVKPEEPFQPVKEATQL [T30V]: the “area with substrate EDLYFQS” value is 0.194, the “area with substrate EELYFQS” value was determined as 0.11, the “area with substrate EGLYFQS” value is 0.0913 and the “area with substrate ERLYFQS” value was 0.107. Also, the “area with substrate ESLYFQS” value was found to be 0.148 and the “area with substrate ETLYFQS” value was 0.0743.

For the variant MGESLFKGPRDYNPISSSICHLTNESDGHTTSLYGIGFGPFIITNKHLFRRNNGTLVVQSLHGVFKVKDYTTLQQHLVDGRDMIIIRMPKDFPPFPQKLKFREPQREERICLVTTNFQTKSMSSMVSDTSCTFPSGDGIFWKHWIQTKDGQCGSPLVSTRDGFIVGIHSASNFTNTNNYFTSVPKNFMELLTNQEAQQWVSGWRLNADSVLWGGHKVFMVKPEEPFQPVKEATQL [T70Y], the “area with substrate EDLYFQS” value came out at 0.0993, the “area with substrate EGLYFQS” value was 0.0711, the “area with substrate EILYFQS” value was found to be 0.054 and the “area with substrate ELLYFQS” value came out at 0.0642. Also, the “area with substrate EMLYFQS” value was determined as 0.0695, the “area with substrate EQLYFQS” value stood at 0.0904, the “area with substrate ERLYFQS” value was found to be 0.0761 and the “area with substrate ESLYFQS” value is 0.0669. Also, the “area with substrate ETLYFQS” value was 0.0649 and the “area with substrate EVLYFQS” value was found to be 0.0682.

For MGESLFKGPRDYNPISSSICHLTNESDGHTTSLYGIGFGPFIITNKHLFRRNNGTLVVQSLHGVFKHKDTTTLQQHLVDGRDMIIIRMPKDFPPFPQKLKFREPQREERICLVTTNFQTKSMSSMVSDTSCTFPSGDGIFWKHWIQTKDGQCGSPLVSTRDGFIVGIHSASNFTNTNNYFTSVPKNFMELLTNQEAQQWVSGWRLNADSVLWGGHKVFMVKPEEPFQPVKEATQL [V67H], the “area with substrate EDLYFQS” value is 0.121, the “area with substrate EELYFQS” value stood at 0.151, the “area with substrate EHLYFQS” value came to 0.097 and the “area with substrate EILYFQS” value stood at 0.0954. For the same variant, the “area with substrate EKLYFQS” value was 0.0761, the “area with substrate ELLYFQS” value is 0.0937, the “area with substrate EPLYFQS” value turned out to be 0.12 and the “area with substrate EQLYFQS” value was 0.119. The “area with substrate ESLYFQS” value is 0.0838, the “area with substrate ETLYFQS” value stood at 0.0974 and the “area with substrate EVLYFQS” value was found to be 0.0996.

Regarding MGESLFKGPRDYNPISSSICHLTNESDGHTTSLYGIGFGPFIITNKHLFRRNNGTLVVQSLHGVFKVKDTTTLQQHLVDGRDMIIIRMPKDFPPFPQKLAFREPQREERICLVTTNFQTKSMSSMVSDTSCTFPSGDGIFWKHWIQTKDGQCGSPLVSTRDGFIVGIHSASNFTNTNNYFTSVPKNFMELLTNQEAQQWVSGWRLNADSVLWGGHKVFMVKPEEPFQPVKEATQL [K100A], the “area with substrate EDLYFQS” value was 0.115, the “area with substrate EELYFQS” value was determined as 0.146, the “area with substrate EILYFQS” value turned out to be 0.1 and the “area with substrate EMLYFQS” value was 0.128. In addition, the “area with substrate EQLYFQS” value was 0.129, the “area with substrate ERLYFQS” value was determined as 0.106, the “area with substrate ESLYFQS” value is 0.144 and the “area with substrate EVLYFQS” value is 0.0805.

As for MGESLFKGPRDYNPISSSICHLTNESDGHTTSLYGIGFGPFIITNKHLFRRNNGTLVVQSLHGVFKVKDTTTLQQHLVDGRDMIIIRMPKDFPPFPQKLMFREPQREERICLVTTNFQTKSMSSMVSDTSCTFPSGDGIFWKHWIQTKDGQCGSPLVSTRDGFIVGIHSASNFTNTNNYFTSVPKNFMELLTNQEAQQWVSGWRLNADSVLWGGHKVFMVKPEEPFQPVKEATQL [K100M], the “area with substrate EDLYFQS” value is 0.164, the “area with substrate EELYFQS” value stood at 0.131, the “area with substrate EILYFQS” value was found to be 0.137 and the “area with substrate EQLYFQS” value was 0.109. Also, the “area with substrate ERLYFQS” value was 0.0944, the “area with substrate ESLYFQS” value stood at 0.0871 and the “area with substrate EYLYFQS” value is 0.11.

With MGESLFKGPRDYNPISSSICHLTNESDVHTTSLYGIGFGPFIITNKHLFRRNNGTLVVQSLHGVFKVKDTTTLQQHLVDGRDMIIIRMPKDFPPFPQKLKFREPQREERICLVTTNFQTKSMSSMVSDTSCTFPSGDGIFWKHWIQTKDGQCGSPLVSTRDGFIVGIHSASNFTNTNNYFTSVPKNFMELLTNQEAQQWVSGWRLNADSVLWGGHKVFMVKPEEPFQPVKEATQL [G28V], the “area with substrate EDLYFQS” value worked out at 0.0915, the “area with substrate EELYFQS” value worked out at 0.142, the “area with substrate EFLYFQS” value turned out to be 0.0634 and the “area with substrate EHLYFQS” value was 0.0668. The “area with substrate EILYFQS” value was 0.0727, the “area with substrate EKLYFQS” value came out at 0.0705, the “area with substrate ELLYFQS” value worked out at 0.0748 and the “area with substrate EMLYFQS” value was found to be 0.0827. Moreover, the “area with substrate EPLYFQS” value stood at 0.0809, the “area with substrate EQLYFQS” value came to 0.0887, the “area with substrate ERLYFQS” value was 0.0693 and the “area with substrate ESLYFQS” value stood at 0.0743. Moreover, the “area with substrate ETLYFQS” value worked out at 0.0829, the “area with substrate EVLYFQS” value came to 0.0777 and the “area with substrate EWLYFQS” value was determined as 0.0702.

As for MGESLFKGPRDYNPISSSICHLTNESDGHTTSLYGIGFGPFIITNKHLFRRNNGTLVVQSLHGVFKVKDTDTLQQHLVDGRDMIIIRMPKDFPPFPQKLKFREPQREERICLVTTNFQTKSMSSMVSDTSCTFPSGDGIFWKHWIQTKDGQCGSPLVSTRDGFIVGIHSASNFTNTNNYFTSVPKNFMELLTNQEAQQWVSGWRLNADSVLWGGHKVFMVKPEEPFQPVKEATQL [T71D], the “area with substrate EDLYFQS” value was 0.0964, the “area with substrate EELYFQS” value was found to be 0.083, the “area with substrate ELLYFQS” value was 0.0696 and the “area with substrate EWLYFQS” value amounted to 0.0717.

MGESLFKGPRDYNPISSSICHLTNESDGHTTSLYGIGFGPFIITNKHLFRRNNGTLVVQSLHGVFKVKDTYTLQQHLVDGRDMIIIRMPKDFPPFPQKLKFREPQREERICLVTTNFQTKSMSSMVSDTSCTFPSGDGIFWKHWIQTKDGQCGSPLVSTRDGFIVGIHSASNFTNTNNYFTSVPKNFMELLTNQEAQQWVSGWRLNADSVLWGGHKVFMVKPEEPFQPVKEATQL [T71Y]: the “area with substrate EDLYFQS” value came to 0.11, the “area with substrate EHLYFQS” value worked out at 0.0702, the “area with substrate ELLYFQS” value stood at 0.0594 and the “area with substrate EMLYFQS” value was 0.0791. Moreover, the “area with substrate EPLYFQS” value came to 0.0903, the “area with substrate EQLYFQS” value was 0.121, the “area with substrate ERLYFQS” value is 0.0876 and the “area with substrate EVLYFQS” value was found to be 0.0906.

For the variant MGESLFKGPRDYNPISSSICHLTNESDGHTTSLYGIGFGPFIITNKHLFRRNNGTLVVQSLHGVFKVKDTHTLQQHLVDGRDMIIIRMPKDFPPFPQKLKFREPQREERICLVTTNFQTKSMSSMVSDTSCTFPSGDGIFWKHWIQTKDGQCGSPLVSTRDGFIVGIHSASNFTNTNNYFTSVPKNFMELLTNQEAQQWVSGWRLNADSVLWGGHKVFMVKPEEPFQPVKEATQL [T71H], the “area with substrate EDLYFQS” value was found to be 0.1, the “area with substrate EHLYFQS” value came to 0.0874, the “area with substrate EILYFQS” value amounted to 0.0809 and the “area with substrate ELLYFQS” value is 0.0585. For the same variant, the “area with substrate EMLYFQS” value was 0.0974, the “area with substrate EQLYFQS” value was 0.0798, the “area with substrate ERLYFQS” value was found to be 0.0983 and the “area with substrate ESLYFQS” value was 0.0772. Besides, the “area with substrate EVLYFQS” value came to 0.0797.

MGESLFKGPRDYNPISSSICHLTNESDGHTTSLYGIGFGPFIITNKHLFRRNNGTLVVQSLHGVFKVKDTITLQQHLVDGRDMIIIRMPKDFPPFPQKLKFREPQREERICLVTTNFQTKSMSSMVSDTSCTFPSGDGIFWKHWIQTKDGQCGSPLVSTRDGFIVGIHSASNFTNTNNYFTSVPKNFMELLTNQEAQQWVSGWRLNADSVLWGGHKVFMVKPEEPFQPVKEATQL [T71I]: the “area with substrate EDLYFQS” value came out at 0.123, the “area with substrate EGLYFQS” value was found to be 0.0902, the “area with substrate EILYFQS” value was found to be 0.0658 and the “area with substrate EKLYFQS” value came to 0.0979. Also, the “area with substrate ELLYFQS” value is 0.065, the “area with substrate EQLYFQS” value worked out at 0.0939, the “area with substrate ERLYFQS” value is 0.0931 and the “area with substrate ESLYFQS” value was 0.0879. The “area with substrate EVLYFQS” value is 0.0907 and the “area with substrate EYLYFQS” value amounted to 0.0989.
